Measured values as given in the RNAGym collection of RNA variant scans (doi:10.1073/pnas.2313332121).
This sample is rich in variants without activity.

B1: TPR 5TU (parent)
chain: GGAUCUUCUCGAUCUAACAAAAAAGACAAAUCUGCCACAAAGCUUGAGAGCAUCUUCGGAUGCAGAGGCGGCAGCCUUCGGUGGCGCGAUAGCGCCAACGUUCUCAACUAUGACACGCAAAACGCGUGCUCCGUUGAAUGGAGUUUAUCAUG

Variants of: B1
Assay: polymerase ribozyme fitness, log enrichment relative to wild type (log ratio); higher = more active; in vitro selection for triplet polymerase activity
Summary of the method: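 Input and output libraries were sequenced on Illumina after a single in vitro selection round, run in triplicate on PCR-built, transcribed mutant libraries of each subunit of a heterodimeric triplet polymerase ribozyme. Selection annealed libraries to a biotinylated primer, the partner subunit and triplets, incubated them frozen at −7 °C, then gel-excised extended constructs for streptavidin-bead capture and RT-PCR. Genotypes with ≥10 input reads and ≥1 read per output were kept. Fitness is the logarithm, taken in base 2, of genotype enrichment divided by wild-type enrichment, using inverse-variance-weighted replicate averages.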

| Variant | polymerase ribozyme fitness (log ratio) |
| --- | --- |
| GGAUCUUCUCGAUCUAACAACAAAGACAAAUCUGCCACAAAGCUUGAGAGCAUCUUCGCAUGCAGAGGCGGCAGCCUUCGGUGGUGCGAUAGCGCCAACCUUCUCAACUAUGACACGCAAAACGCGUGCACCGUUAAAUGGAGGUUAUCAUG [A21C G59C C85U G100C U130A G136A U144G] | ≤ -4.2 |
| GGAUCUUCUCGAUCUAACAACAAAGACAAAUCUGCCACAAAGCUUGAGAGCAUCUUCGUAUGCAGAGGCGGCAGCCUUGGGAGGCGCGAUAGCGCCAACGUUCUCAACUAUGACACGCAAAACGCGUGCUCCGUUGAAUGGAGUUUAUCAUG [A21C G59U C79G U82A] | ≤ -4.2 |
| GGAUCUUCUCGAUCUAACAACAAAGACAAAUCUGCCACAAAGCUUGAGAGCAUCUUCGGAUCCAGAGGCGGCAGCCUUCGGUGGCGCGAUAGCGCCAACGUUCUCAACUAUGACACGCAAAACGCGUGCUCCGUUGAAUGGAGUUUAUCAUG [A21C G62C] | -0.587 |
| GGAUCUUCUCGAUCUAACAACAAAGACAAAUCUGCCACAAAGCUUGAGAGCAUCUUCGGAUGCAGACGCGGCAGCCUUCGGUGACGCGAUAGCGCCAACGUUCUCAACUAUGACACGCAAAACGCGUGCUCCGUUGAAAUGAGUUUAUCAUG [A21C G67C G84A U139A G140U] | ≤ -4.2 |
| GGAUCUUCUCGAUCUAACAACAAAGACAAAUCUGCCACAAAGCUUGAGAGCAUCUUCGGAUGCAGAGACGGCAGCCUUCGGUGGCGCGAGAGCUCCAACGUUCUCAACUAUGACAAGCAAAACGCGUGCUCCGUUGAAUGGAGUUUAUCAUG [A21C G68A U90G G94U C116A] | ≤ -4.2 |
| GGAUCUUCUCGAUCUAACAACAAAGACAAAUCUGCCACAAAGCUUGAGAGCAUCUUCGGAUGCAGAGACGGCAGCCUUCGGUGGCGCGAUAGCGCCAACGUGCUCAACUAGGACACGCAAAACGCGUGCUCCGUUAAAUUGAGUUAAUCAUG [A21C G68A U102G U111G G136A G140U U146A] | ≤ -4.2 |
| GGAUCUUCUCGAUCUAACAACAAAGACAAAUCUGCCACAAAGCUUGAGAGCAUCUUCGGAUGCAGAGCCGGCAGCCUUCGGUGGCGCGAUAGCGCCAACGUUCUCAACUAUGACACGCAAAACGCGUGCUCCGUUGAAUGGGGUUUAUCAUG [A21C G68C A142G] | -4.13 |
| GGAUCUUCUCGAUCUAACAACAAAGACAAAUCUGCCACAAAGCUUGAGAGCAUCUUCGGAUGCAGAGGCGGCAGCCUUCGGUCGCGAGAUAUCGCCAACGUUCUCAACUAUGACAGGCAAAACGCGUGCUCCGUUGAAUGGAGUUUAUCAUG [A21C G83C C87A G92U C116G] | -1.27 |
| GGAUCUUCUCGAUCUAACAACAAAGACAAAUCUGCCACAAAGCUUGAGAGCAUCUUCGGAUGCAGAGGCGGCAGCCUUCGGUGACGCGAUAGCGACAACGUUCCCAACUAUGACACGCAAAACGCGUGCUCCGUUGAAUGGAGUUUAUCAUG [A21C G84A C95A U104C] | -0.91 |
| GGAUCUUCUCGAUCUAACAACAAAGACAAAUCUGCCACAAAGCUUGAGAGCAUCUUCGGAUGCAGAGGCGGCAGCCUUCGGUGGCGCGAUAGCCCCAACGUUCUCAACUAUGACAUGCAAAACGCGUGCUCCGUUGAAUGGAGUUUAUCAUG [A21C G94C C116U] | 0.209 |
| GGAUCUUCUCGAUCUAACAACAAAGACAAAACAGCCAUAAAGCUUGAGAGCAUCUUCGCAUGCAGAGACGGCAGCCUUCGGUGGCGCGAUAGCGCCAACGUUCUCAACUAUGACACGCAAAACGCGUGCUCCGUUGAAUGGAGUUUAUCAUG [A21C U31A U33A C38U G59C G68A] | ≤ -4.2 |
| GGAUCUUCUCGAUCUAACAACAAAGACAAAGCUGCCACAAAGCUUGAGCCCAUCUUCGGAUGCAGAGGCGGCAGCCUUCGGUGGCGCGAUAGAGCCAACGUUCUUAACUAUGACACGCAAAACGAGUGCUCCGAUGAAUGGAGUUUAUCAUG [A21C U31G A49C G50C C93A C105U C125A U134A] | ≤ -4.2 |
| GGAUCUUCUCGAUCUAACAACAAAGACAAAGCUGCAACAAAGCUUGAGAGCAUCUUGGGAUGCAGAGGCGGCAGCCUUCGGUGGAGCGAUAGCGCCAACGUUCUCAACUAUGACACGCCAAACGCGUGCUCCGUUGAAUGGAGUUUAUCAUG [A21C U31G C36A C57G C85A A119C] | ≤ -4.2 |
| GGAUCUUCUCGAUCUAACAACAAAGACAAAUCUGCCACAAAGCGUGAGAGCAUCUUCGGAUGCACAGGCGGCAGCCUUCGGUGGCGCGAUAGCACCAAGGUUCUCAACUAUGACACGCAAAACGCGUGCUCCGUUGAAUGGAGUUUAUCAUG [A21C U44G G65C G94A C99G] | ≤ -4.2 |
| GGAUCUUCUCGAUCUAACAACAAAGACAAAUCUGCCACAAAGCUAGAAAGCAACUUCGGAUGCAGAGGCGGCAGCUUUCGGUGGCGCGAUAGCGCCAACGUUCUCAACUAUGACACGCGAAACGCGUGCUCCGUUGAAUGGAGUUUAUCAUG [A21C U45A G48A U53A C76U A119G] | ≤ -4.2 |
| GGAUCUUCUCGAUCUAACAACAAAGACAAAUCUGCCACAAAGCUUGAGAGCAACUUCGGAUGCAGAGGCGGCAGCCUUCGGUGGAGCGAUAGCGCCAACGUUCUCAACUAUGACACGCAAAACGCGUGCUCCGUUGAAUGGAGUUUAUCAUG [A21C U53A C85A] | -2.67 |
| GGAUCUUCUCGAUCUAACAACAAAGACAAAUCUGCCACAAAGCUUGAGAGCAUCGUCGGAUGCAGAGGCGGCAGCCUUCGGUUGCGCGAUAGCGCCAACGUUCUCAACUAUGACACGCAAAACGCGUGCUCCGUUGAAUGGAGUUUAUCAUG [A21C U55G G83U] | -0.166 |
| GGAUCUUCUCGAUCUAACAACAAAGACAAAUCUGCCACAAAGCUUGAGAGCAUCUCCGGAUGCAGAGGCGGCAGCCUUCGGUGGCGCGAUUGCGCUAACGUUGUCAACUUUGACACGCAAAACGCGUGCUCCGUUGAAUGGAAUUUAUCAUG [A21C U56C A91U C96U C103G A110U G143A] | ≤ -4.2 |
| GGAUCUUCUCGAUCUAACAACAAAGACAAAUCUGCCACAAAGCUUGAGAGCAUCUUCGGAAGCAGAGGCAGCAGCCUUCGGUGUCGCGAUAGCGCCAACGUUCUCAACUAUGACACGCAAAACGCGUGCUCCGUUGAAUGGAGUUUCUCAUG [A21C U61A G70A G84U A147C] | ≤ -4.2 |
